# Experimental data taken from PubChem BioAssay AID686979 (National Center for Advancing Translational Sciences (NCATS), 2013).
# Hit rate of the full screen: of about 420,000 compounds, about 50,000 (12%) were called active. The inconclusive results got no clear call from the source; some entries with a clear call stand among them for comparison. Calls come from the whole dose curve; as a rule, active = well fitted inhibition curve with a large enough effect; inconclusive = small, poorly fitted or top-dose-only effect; inactive = flat fitted curve, though single readings scatter. No potency is given beside an inconclusive call; the fits are too rough.
# Assay: qHTS for Inhibitors of human tyrosyl-DNA phosphodiesterase 1 (TDP1): qHTS in cells in presence of CPT; note: nearly all actives have a fitted effect of over 55% in size
# Conditions: chicken DT40 Tdp1-/-;hTDP1 cells + 20 nM CPT, ATP luminescence, 48 h; activity change, negative = growth inhibition: at 46.2 µM (top of the series) unless noted
# In short: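 Chicken DT40 Tdp1-/- cells complemented with human TDP1, 400 cells/well, exposed to compounds plus 20 nM camptothecin for at least 48 h at 37 C; viability read as ATP content by CellTiter-Glo luminescence.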
# % is set by controls: 0 for no effect and ±100 for the full control effect; potency is the fitted concentration of half-maximal effect; tags give direction and shape of the fitted curve.
Structure (SMILES),"activity change, negative = growth inhibition",Potency
CCOC(=O)N1CCC(Nc2c(NCCCN3CCN(CC)CC3)c(=O)c2=O)CC1,inactive: 2.44%,
CCCCN(C)Cc1c(O)ccc2c(=O)c(-c3ccccc3OC)coc12,,"inconclusive [inhibitor, single point]"
COc1ccc2[nH]c3c(c2c1)CCN1C(=O)C(CC(=O)NCCN2CCOCC2)C[C@H](C(=O)N2CCCCC2)[C@@]31C (some centres undefined),inactive: -6.5%,
CNC(=S)N1N=C(c2ccc(Br)cc2)CC1c1ccc(OC)cc1 (centres undefined),,"inconclusive [inhibitor, single point]"
CCOC(=O)C1CCN(C(=O)c2ccc(NS(=O)(=O)c3ccc(F)cc3C)cc2)CC1,inactive: -24.5%,
COc1ccc(C(c2nnnn2Cc2ccc(F)cc2)N2CCN(c3ccccc3)CC2)cc1 (centres undefined),,"inconclusive [inhibitor, single point]"
Cc1cnc(C(=O)N2CCCC(N3CCN(c4cccc(C(F)(F)F)c4)CC3)C2)cn1 (centres undefined),,active: 23.1 µM
Cc1nnc(OCc2nc3ccccc3n2C)c2ccccc12,,"inconclusive [inhibitor, single point]"
CCOc1ccc(N2C(=O)S/C(=C\c3ccc(O)c(OC)c3)C2=O)cc1,inactive: -7.38%,
CC/C(=N\NC(=O)Cc1ccc(Br)cc1)c1cccs1,inactive: -11.1%,
CCCn1c(SCc2nc(-c3ccc(OC)c(OC)c3)no2)nnc1-c1ccccc1,,"inconclusive [inhibitor, single point]"
CC12CCC(=O)N1C(C(=O)NNC(=O)c1ccccc1F)CS2 (centres undefined),inactive: -0.638%,
COc1ccc(-c2ccc(C(=O)Nc3cc(OC)c(OC)c(OC)c3)c3occc23)c(C)c1,,active: 6.51 µM
Cc1ccc(S(=O)(=O)N2CCCCC2)cc1C(=O)OC(C)C(=O)NCC1CCCCC1 (centres undefined),,"inconclusive [inhibitor, single point]"
O=C(Cc1ccccc1[N+](=O)[O-])N1CCN(c2ccc(F)cc2)CC1,inactive: -27.7%,
COc1ccccc1N(O)C1CC(=O)N(c2ccc(F)cc2)C1=O (centres undefined),,"inconclusive [inhibitor, single point]"
Cc1cc[n+](CC(=O)c2ccc(NC(=O)c3ccccc3)cc2)c2ccccc12,,active: 8.2 µM
Cc1nc([N+](=O)[O-])nn1C12CC3CC(CC(Br)(C3)C1)C2,,active: 23.1 µM
COc1ccc(-c2noc(CCC(=O)N(C)c3cccc(C)c3)n2)cc1,,"inconclusive [inhibitor, single point]"
Cc1cc(C(=O)CSc2nnnn2C)c(C)n1CCc1ccc(F)cc1,inactive: 4.17%,
Cc1ccc(CNC(=O)c2ccc(N3CCc4ccccc43)c([N+](=O)[O-])c2)cc1,,"inconclusive [inhibitor, single point]"
COc1ccc(CNC(=O)c2cn(Cc3ccc(OC(C)=O)cc3)c(=O)s2)cc1,,"inconclusive [inhibitor, partial curve]"
COc1ccc(NC(=O)Cn2nnc(-c3ccccc3NC(=O)c3ccco3)n2)cc1,,active: 2.91 µM

Structure (SMILES),"activity change, negative = growth inhibition",Potency
COC(=O)c1ccc(CN2C(=O)NC(Cc3c[nH]c4ccccc34)C2=O)cc1 (centres undefined),,"inconclusive [inhibitor, partial curve]"
CC(=O)N1CCc2cc(S(=O)(=O)CCC(=O)Nc3cc(C)cc(C)c3)ccc21,inactive: 3.15%,
Cc1cc2c(cc1C)N[C@]1(C[C@H]3CCCC(=O)N4CC[C@@H](C1)[C@@H]34)C(=Nc1ccccc1C)N2,,"inconclusive [inhibitor, single point]"
Cc1cccc(C)c1NC(=O)C1C(c2ccc3c(c2)OCO3)=Nc2ccccc2N1C(=O)c1ccccn1 (centres undefined),,"inconclusive [inhibitor, single point]"
O=C(CCCCCN1C(=O)[C@@H]2Cc3ccccc3CN2C1=O)N[C@@H](Cc1ccc(O)cc1)C(=O)O,inactive: -11.2%,
COc1ccc(/C(C)=N\Nc2nc(-c3ccccc3)cc(=O)[nH]2)cc1,inactive: -18.2%,
CCSc1ncc(/C=N/Nc2ccc(F)cc2)n1C,,"inconclusive [inhibitor, single point]"
C=CCNC(=S)NNC(=O)COc1c(Cl)cc(Cl)cc1Cl,,"inconclusive [inhibitor, single point]"
CC1CCc2nn(CC(=O)Nc3ccccc3Cl)cc2C1 (centres undefined),inactive: -25.8%,
CCOc1ccc(NC(=O)NCCc2c(C)nn(C)c2C)cc1,inactive: 6.72%,
Oc1cccc2ccc(/C=C/c3cccs3)nc12,,active: 15.8 µM
CC(=O)c1cccc(NC(=O)C2Cc3c(-c4cccc(C(C)=O)c4)ccnc3O2)c1 (centres undefined),,active: 16.4 µM
COc1ccc(CC(N)c2csc(Nc3nncc4ccccc34)n2)cc1 (centres undefined),,"inconclusive [inhibitor, single point]"
Cc1c(NC(=O)Nc2ccc([N+](=O)[O-])cc2)c(=O)n(-c2ccccc2)n1C,,"inconclusive [inhibitor, single point]"
CCC(C(=O)NC1CCCCC1)N(Cc1cccs1)C(=O)c1snc(C(N)=O)c1N (centres undefined),,"inconclusive [inhibitor, single point]"
Cc1cccc(S(=O)(=O)N2CCCc3ccccc32)c1,,active: 25.9 µM
S=C(CN1CCCC1=S)NCCc1ccccc1,inactive: -15.3%,
O=C(Nc1ccc(Oc2ccccc2)cc1)C1CCCN(c2ncccn2)C1 (centres undefined),inactive: -1.33%,
COc1cccc(S(=O)(=O)N2CCN(Cc3ccc4c(c3)OCO4)CC2)c1,,inactive
CCOC(=O)N1CCN(CC(O)COc2ccc(C)cc2C(C)(C)C)CC1 (centres undefined),,"inconclusive [inhibitor, single point]"
Cc1cnn(C(=S)NCC2CCCO2)c1 (centres undefined),inactive: -4.98%,
CN(Cc1ccccc1)S(=O)(=O)c1ccc(-c2cnc(C3CC3)o2)cc1,,"inconclusive [inhibitor, single point]"
Cc1c(C2=CCN(S(=O)(=O)c3cccc(Cl)c3)CC2)c2ccccc2n1CC(=O)N1CCCC1,,"inconclusive [inhibitor, single point]"

Structure (SMILES),"activity change, negative = growth inhibition",Potency
COc1ccc(S(=O)(=O)N(C)C)cc1NC(=O)C1CCN(c2ncnc3sc(C)c(C)c23)CC1,,active: 20.6 µM
COc1ccc(NC(=O)C(=O)NCC(c2cccnc2)N2CCc3ccccc32)cc1OC (centres undefined),,"inconclusive [inhibitor, single point]"
O=C(c1cc(COc2ccc(F)cc2Cl)on1)N1CCCC(c2ccccc2)C1 (centres undefined),,"inconclusive [inhibitor, single point]"
COc1ccc(CN2CCCC(C(=O)Nc3cccc(-n4cccn4)c3)C2)cc1 (centres undefined),,"inconclusive [inhibitor, single point]"
O=C1CCN(CCc2ccccc2)CCN1[C@H](CSc1ccc(Br)cc1)Cc1ccccc1,,active: 16.4 µM
CCCCC(=O)N1CCN(c2nc3ccc(Cl)cc3s2)CC1,,active: 16.4 µM
O=C(C1=C[C@@H](C2CCCCC2)C[C@@H](OCc2ccc(CO)cc2)O1)N1CCN(Cc2ccc3c(c2)OCO3)CC1,,"inconclusive [inhibitor, single point]"
COc1ccc(S(=O)(=O)N(CCN2CCOCC2)Cc2cc(OC)ccc2OC)cc1,inactive: -12.8%,
O=C(CSc1nnc2ccc(-c3ccncc3)nn12)Nc1ccc(F)cc1,,"inconclusive [inhibitor, partial curve]"
COc1ccc(Br)cc1C(C[N+](=O)[O-])c1c(N)n(C)c(=O)n(C)c1=O (centres undefined),,active: 3.66 µM
O=C(NCC(c1cccnc1)N1CCN(c2ccc(F)cc2)CC1)OCc1ccccc1 (centres undefined),,"inconclusive [inhibitor, single point]"
COc1c(C)cc(C(=O)C2CCCN(C(=O)c3cccc(-n4cccn4)c3)C2)cc1C (centres undefined),,"inconclusive [inhibitor, single point]"
COc1ccc(C(C)C)cc1S(=O)(=O)Nc1cccnc1,,"inconclusive [inhibitor, single point]"
CCCC(=O)C1=C(O)C(c2cccc(Oc3ccccc3)c2)CCC1=O (centres undefined),,"inconclusive [inhibitor, single point]"
CCN(c1ccccc1)S(=O)(=O)c1cccc(C(=O)NCC(c2ccco2)N2CCCCC2)c1 (centres undefined),,"inconclusive [inhibitor, single point]"
CCOc1ccc(N(CC(=O)NC(C(C)C)C(C)C)S(=O)(=O)c2ccc(OC)c(OC)c2)cc1,,"inconclusive [inhibitor, single point]"
C[C@@H]1CCCCO[C@@H](CN(C)C(=O)C2CCCCC2)[C@@H](C)CN([C@H](C)CO)C(=O)c2cc(NC(=O)NC3CCCCC3)ccc2O1,,active: 23.1 µM
COc1ccc(C(C(=O)Nc2c(C)cccc2C)n2c(=O)c(-c3ccco3)nc3ccccc32)cc1 (centres undefined),,"inconclusive [inhibitor, single point]"
CC(OC(=O)Cn1cnc2c1c(=O)n(C)c(=O)n2C)C(=O)NC1CCCCC1C (centres undefined),inactive: 8.8%,
CN1C(=O)/C(=C/c2coc3ccc(O)cc3c2=O)SC1=S,,"inconclusive [inhibitor, single point]"
O=C(Nc1ccc(Oc2ccccc2)cc1)c1ccc(Cn2c(=O)[nH]c3ccsc3c2=O)cc1,,"inconclusive [inhibitor, partial curve, poor fit]"
C[C@@H]1CCCCO[C@H](CN(C)C(=O)Nc2ccc(F)cc2)[C@@H](C)CN([C@H](C)CO)C(=O)c2cc(N(C)C)ccc2O1,,"inconclusive [inhibitor, single point]"
COc1cc(/C=N/NC(N)=S)ccc1OCC(=O)Nc1ccc(C)cc1,,"inconclusive [inhibitor, full curve, poor fit]"
